Experimental data: the supplement of paper PMC4967469
By IC50 is meant the dose at which the fit gives 50% viability; fits outside the tested doses are given as limits. AUC sums up the same curve from the lowest dose to the 256-fold higher top dose; values near 1 show little effect. A top dose marked as inferred was calculated from the reported fits.

Tests used:
Experiment in all cases: Viability of human cancer cell lines after 72 h of drug (GDSC screen)
Lenalidomide = compound: Nc1cccc2c1CN(C1CCC(=O)NC1=O)C2=O [Lenalidomide]; settings: top dose 5 µM; top dose inferred
Experimental: (§1)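 Human cancer cell lines in 384-well plates, medium with 10% serum, drug for 72 h over a 256-fold dose range (nine 2-fold or five 4-fold steps up to the top dose). Adherent lines were fixed and stained with the nucleic acid dye Syto60, suspension lines read with resazurin; signal relative to control wells, capped at 0 and 100%. One two-parameter sigmoid per drug and line, fitted in a mixed model over all curves with the slope shared within a line.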

Bryostatin 1 = compound: CCC/C=C/C=C/C(=O)O[C@H]1/C(=C/C(=O)OC)C[C@H]2C[C@H]([C@@H](C)O)OC(=O)C[C@H](O)C[C@@H]3C[C@H](OC(C)=O)C(C)(C)[C@](O)(C[C@@H]4C/C(=C/C(=O)OC)C[C@H](/C=C/C(C)(C)[C@]1(O)O2)O4)O3 [Bryostatin 1]; settings: top dose 0.008 µM; top dose inferred
Experimental: as §1

GW-2580 = compound: COc1ccc(COc2ccc(Cc3cnc(N)nc3N)cc2OC)cc1 [GW-2580]; settings: top dose 20 µM; top dose inferred
Experimental: as §1

SGC0946 = compound: CC(C)N(CCCNC(=O)Nc1ccc(C(C)(C)C)cc1)C[C@H]1O[C@@H](n2cc(Br)c3c(N)ncnc32)[C@H](O)[C@@H]1O [SGC0946]; settings: top dose 0.5 µM; top dose inferred
Experimental: as §1

Cell Line | AUC (Lenalidomide) | IC50 (Lenalidomide) [nM] | AUC (Bryostatin 1) | IC50 (Bryostatin 1) [nM] | AUC (GW-2580) | IC50 (GW-2580) [nM] | AUC (SGC0946) | IC50 (SGC0946) [nM]
PANC-08-13 (pancreas, adherent) | 0.904 | > 5000 | 0.972 | > 8 | 0.971 | > 20000 | 0.981 | > 500
PC-3 [JPC-3] (lung adenocarcinoma, adherent) | 0.981 | > 5000 | 0.973 | > 8 | 0.972 | > 20000 | 0.979 | > 500
PC-14 (lung adenocarcinoma, adherent) | 0.988 | > 5000 | 0.943 | > 8 | 0.989 | > 20000 | 0.984 | > 500
PCI-4B (head and neck, adherent) | 0.976 | > 5000 | 0.966 | > 8 | 0.987 | > 20000 | 0.98 | > 500
PCI-6A (head and neck, adherent) | 0.958 | > 5000 | 0.987 | > 8 | 0.988 | > 20000 | 0.986 | > 500
PCI-15A (head and neck, adherent) | 0.988 | > 5000 | 0.976 | > 8 | 0.984 | > 20000 | 0.986 | > 500
PCI-30 (head and neck, adherent) | 0.955 | > 5000 | 0.977 | > 8 | 0.983 | > 20000 | 0.982 | > 500
PE/CA-PJ15 (head and neck, adherent) | 0.961 | > 5000 | 0.986 | > 8 | 0.984 | > 20000 | 0.984 | > 500
PF-382 (T-cell lymphoblastic leukaemia, suspension) | 0.986 | > 5000 | 0.985 | > 8 | 0.991 | > 20000 | 0.99 | > 500
PL4 (pancreas, adherent) | 0.987 | > 5000 | 0.987 | > 8 | 0.987 | > 20000 | 0.98 | > 500
QIMR-WIL (acute myeloid leukaemia, suspension) | 0.985 | > 5000 | 0.987 | > 8 | 0.978 | > 20000 | 0.985 | > 500
RC-K8 (B-cell lymphoma, suspension) | 0.99 | > 5000 | 0.993 | > 8 | 0.992 | > 20000 | 0.993 | > 500
RCC10RGB (kidney, adherent) | 0.955 | > 5000 | 0.895 | > 8 | 0.95 | > 20000 | 0.963 | > 500
RCM-1 (large intestine, adherent) | 0.982 | > 5000 | 0.98 | > 8 | 0.978 | > 20000 | 0.983 | > 500
REH (B-cell leukaemia, suspension) | 0.939 | > 5000 | 0.987 | > 8 | 0.981 | > 20000 | 0.984 | > 500
RERF-LC-KJ (lung adenocarcinoma, adherent) | 0.987 | > 5000 | 0.969 | > 8 | 0.987 | > 20000 | 0.976 | > 500
RERF-LC-MS (lung adenocarcinoma, adherent) | 0.986 | > 5000 | 0.809 | 4.32 | 0.981 | > 20000 | 0.981 | > 500
RERF-LC-Sq1 (lung squamous cell carcinoma, adherent) | 0.922 | > 5000 | 0.979 | > 8 | 0.978 | > 20000 | 0.975 | > 500
RF-48 (stomach, adherent) | 0.972 | > 5000 | 0.984 | > 8 | 0.981 | > 20000 | 0.97 | > 500
RH-1 (rhabdomyosarcoma, adherent) | 0.992 | > 5000 | 0.99 | > 8 | 0.992 | > 20000 | 0.979 | > 500

Cell Line | AUC (Lenalidomide) | IC50 (Lenalidomide) [nM] | AUC (Bryostatin 1) | IC50 (Bryostatin 1) [nM] | AUC (GW-2580) | IC50 (GW-2580) [nM] | AUC (SGC0946) | IC50 (SGC0946) [nM]
RH-41 (rhabdomyosarcoma, adherent) | 0.984 | > 5000 | 0.99 | > 8 | 0.986 | > 20000 | 0.991 | > 500
RKN (ovary, adherent) | 0.985 | > 5000 | 0.957 | > 8 | 0.977 | > 20000 | 0.98 | > 500
RMG-I (ovary, adherent) | 0.976 | > 5000 | 0.961 | > 8 | 0.978 | > 20000 | 0.981 | > 500
RO82-W-1 (thyroid, adherent) | 0.981 | > 5000 | 0.977 | > 8 | 0.98 | > 20000 | 0.981 | > 500
ROS-50 (B-cell leukaemia, suspension) | 0.976 | > 5000 | 0.98 | > 8 | 0.974 | > 20000 | 0.982 | > 500
RPMI-2650 (head and neck, adherent) | 0.984 | > 5000 | 0.983 | > 8 | 0.98 | > 20000 | 0.983 | > 500
RPMI-8402 (T-cell lymphoblastic leukaemia, suspension) | 0.99 | > 5000 | 0.99 | > 8 | 0.991 | > 20000 | 0.98 | > 500
RT4 (bladder, adherent) | 0.985 | > 5000 | 0.987 | > 8 | 0.979 | > 20000 | 0.986 | > 500
RVH-421 (melanoma, adherent) | 0.978 | > 5000 | 0.961 | > 8 | 0.969 | > 20000 | 0.971 | > 500
RXF393 (kidney, adherent) | 0.938 | > 5000 | 0.939 | > 8 | 0.944 | > 20000 | 0.937 | > 500
Raji (Burkitt lymphoma, suspension) | 0.99 | > 5000 | 0.99 | > 8 | 0.989 | > 20000 | 0.989 | > 500
Ramos-2G6-4C10 (Burkitt lymphoma, suspension) | 0.9 | 4770 | 0.983 | > 8 | 0.974 | > 20000 | 0.984 | > 500
SAS (head and neck, adherent) | 0.964 | > 5000 | 0.979 | > 8 | 0.979 | > 20000 | 0.978 | > 500
SAT (head and neck, adherent) | 0.892 | > 5000 | 0.968 | > 8 | 0.968 | > 20000 | 0.948 | > 500
SBC-1 (small cell lung carcinoma, suspension) | 0.987 | > 5000 | 0.989 | > 8 | 0.958 | > 20000 | 0.987 | > 500
SBC-3 (small cell lung carcinoma, adherent) | 0.989 | > 5000 | 0.886 | 7.46 | 0.988 | > 20000 | 0.988 | > 500
SBC-5 (small cell lung carcinoma, adherent) | 0.993 | > 5000 | 0.911 | 7.71 | 0.991 | > 20000 | 0.993 | > 500
SCC-4 (head and neck, adherent) | 0.959 | > 5000 | 0.984 | > 8 | 0.979 | > 20000 | 0.982 | > 500
SCC-9 (head and neck, adherent) | 0.981 | > 5000 | 0.964 | > 8 | 0.959 | > 20000 | 0.979 | > 500
SCC-25 (head and neck, adherent) | 0.984 | > 5000 | 0.984 | > 8 | 0.974 | > 20000 | 0.982 | > 500

Cell Line | AUC (Lenalidomide) | IC50 (Lenalidomide) [nM] | AUC (Bryostatin 1) | IC50 (Bryostatin 1) [nM] | AUC (GW-2580) | IC50 (GW-2580) [nM] | AUC (SGC0946) | IC50 (SGC0946) [nM]
SCH (stomach, adherent) | 0.988 | > 5000 | 0.973 | > 8 | 0.987 | > 20000 | 0.983 | > 500
SF268 (glioma, adherent) | 0.985 | > 5000 | 0.982 | > 8 | 0.971 | > 20000 | 0.982 | > 500
SF295 (glioma, adherent) | 0.973 | > 5000 | 0.964 | > 8 | 0.984 | > 20000 | 0.97 | > 500
SH-4 (melanoma, adherent) | 0.968 | > 5000 | 0.951 | > 8 | 0.972 | > 20000 | 0.96 | > 500
SHP-77 (small cell lung carcinoma, semi-adherent) | 0.992 | > 5000 | 0.991 | > 8 | 0.967 | > 20000 | 0.983 | > 500
SIMA (neuroblastoma, adherent) | 0.985 | > 5000 | 0.981 | > 8 | 0.985 | > 20000 | 0.983 | > 500
SISO (cervix, adherent) | 0.988 | > 5000 | 0.987 | > 8 | 0.988 | > 20000 | 0.987 | > 500
SJRH30 (rhabdomyosarcoma, adherent) | 0.985 | > 5000 | 0.966 | > 8 | 0.986 | > 20000 | 0.981 | > 500
SK-HEP-1 (liver, adherent) | 0.989 | > 5000 | 0.972 | > 8 | 0.988 | > 20000 | 0.988 | > 500
SK-LMS-1 (soft tissue, adherent) | 0.974 | > 5000 | 0.982 | > 8 | 0.987 | > 20000 | 0.986 | > 500
SK-MEL-1 (melanoma, suspension) | 0.993 | > 5000 | 0.99 | > 8 | 0.993 | > 20000 | 0.993 | > 500
SK-MEL-3 (melanoma, adherent) | 0.984 | > 5000 | 0.983 | > 8 | 0.981 | > 20000 | 0.962 | > 500
SK-MEL-24 (melanoma, adherent) | 0.98 | > 5000 | 0.977 | > 8 | 0.982 | > 20000 | 0.981 | > 500
SK-MEL-30 (melanoma, adherent) | 0.986 | > 5000 | 0.947 | > 8 | 0.985 | > 20000 | 0.984 | > 500
SK-MES-1 (lung squamous cell carcinoma, adherent) | 0.981 | > 5000 | 0.945 | > 8 | 0.977 | > 20000 | 0.983 | > 500
SK-MM-2 (myeloma, suspension) | 0.987 | > 5000 | 0.986 | > 8 | 0.981 | > 20000 | 0.981 | > 500
SK-N-AS (neuroblastoma, adherent) | 0.984 | > 5000 | 0.94 | > 8 | 0.976 | > 20000 | 0.982 | > 500
SK-N-SH (neuroblastoma, adherent) | 0.967 | > 5000 | 0.918 | > 8 | 0.973 | > 20000 | 0.985 | > 500
SK-OV-3 (ovary, adherent) | 0.981 | > 5000 | 0.967 | > 8 | 0.974 | > 20000 | 0.979 | > 500
